Experimental data as given in the BET-seq Pho4 binding data (Le et al. 2018).
The list shows a part of the results. The energies were worked out here from pooled read counts, against the library average; single values are noisy.

These sequences were tested against T1, Pho4 (S. cerevisiae) (UniProt P07270) (assay: relative binding free energy (BET-seq); higher = weaker binding). Conditions: reference: library average.
T1 sequence: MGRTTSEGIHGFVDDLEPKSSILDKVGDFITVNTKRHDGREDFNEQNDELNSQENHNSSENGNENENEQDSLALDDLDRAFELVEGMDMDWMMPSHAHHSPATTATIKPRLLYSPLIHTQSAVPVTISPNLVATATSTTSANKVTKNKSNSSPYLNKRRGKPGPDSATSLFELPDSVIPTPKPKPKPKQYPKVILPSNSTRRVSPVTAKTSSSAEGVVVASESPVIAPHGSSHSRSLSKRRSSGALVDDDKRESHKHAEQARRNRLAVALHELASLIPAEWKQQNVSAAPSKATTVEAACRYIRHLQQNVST

Relative binding free energy, -0.28 kcal/mol:
GGTAGCACGTGGGGCT

Relative binding free energy, -0.31 kcal/mol:
TTTGGCACGTGGCGCG

Relative binding free energy, 0.38 kcal/mol:
GAGGTCACGTGAGCAG, AACGTCACGTGAGAGG

Relative binding free energy, 0.31 kcal/mol:
GAAAGCACGTGAGGTG, GTCAACACGTGAGTTG, GGGTGCACGTGAAGAT

Relative binding free energy, 0.36 kcal/mol:
CATTTCACGTGTGGAA, GTATACACGTGAGGAG, TGTATCACGTGAATCT, TTTTACACGTGAGGTT

Relative binding free energy, 0.28 kcal/mol:
GGAGTCACGTGTGAGA

Relative binding free energy, -0.15 kcal/mol:
TGCTACACGTGGGTTG, AGTGGCACGTGGCGGC

Relative binding free energy, -0.21 kcal/mol:
GGGGGCACGTGCACGG, AAGCCCACGTGGGGTG, GAGGGCACGTGGCTCG, TTGCGCACGTGGACGG

Relative binding free energy, -0.17 kcal/mol:
TGACGCACGTGGTTTA, AGGTACACGTGGGCGA

Relative binding free energy, -0.12 kcal/mol:
TGTTGCACGTGTACGA, ATGGGCACGTGGTAAT, GAGTGCACGTGGGTTA, TCTAGCACGTGGGGTT, AGTGCCACGTGGAGGT

Relative binding free energy, 0.01 kcal/mol:
ATGGTCACGTGGAGTC, TGTGACACGTGGATCT, GGGTCCACGTGGAGTG

Relative binding free energy, -0.09 kcal/mol:
TGTTGCACGTGGGCCA, TCGGGCACGTGTTGTA, GGGGGCACGTGCGGTT, TGAGACACGTGGTCAG, AGCGTCACGTGGGTAG, TACGCCACGTGGGGTT

Relative binding free energy, 0.13 kcal/mol:
TTGGTCACGTGTCTAT, TTCGGCACGTGTAATG, GGTTGCACGTGTGCTG, GTGGTCACGTGGCTAA, CTTTACACGTGTAATT, TTGATCACGTGCTCGG, GGTAACACGTGGTTTT

Relative binding free energy, 0.07 kcal/mol:
CAGAGCACGTGAGGGT, GTCTGCACGTGGTGGG, GGGTGCACGTGGATAG, TGTGCCACGTGATGTA, GTGTACACGTGTGCGA

Relative binding free energy, 0.02 kcal/mol:
GAGGACACGTGTGTTG, CTAGTCACGTGGGGAG, GGCCACACGTGGGGTG, TTTGACACGTGCGAGG

Relative binding free energy, 0.11 kcal/mol:
TTTGTCACGTGTGTTA, AGTAACACGTGATGGA, TAGTGCACGTGTTAGT, GGGGTCACGTGCTGAA

Relative binding free energy, 0.18 kcal/mol:
GTTGTCACGTGTGGGT, TGTCGCACGTGAATGG, GGCATCACGTGGGGGC, CAATTCACGTGGGGAT, ACTTTCACGTGTAGTG, ATCAGCACGTGAGTGG, GGTTGCACGTGAGCTT, GGGTTCACGTGGGCAT

Relative binding free energy, -0.16 kcal/mol:
AAAAACACGTGGGGGA, GTATGCACGTGGATAG, AGGCACACGTGGGTTA, GTAGGCACGTGGGGTT, CAGAGCACGTGCGTGG

Relative binding free energy, 0.33 kcal/mol:
GCGTTCACGTGTTTAA

Relative binding free energy, 0.24 kcal/mol:
GTATACACGTGAGGGC, GTTATCACGTGTTCGG, GTTGTCACGTGATTCA, TATTTCACGTGCGCTG, TCATTCACGTGGAGTG, TCTTTCACGTGTTTGA

Relative binding free energy, 0.26 kcal/mol:
GGGATCACGTGTCGAG, CTGGACACGTGTGGCA, TGTTACACGTGTGGGT

Relative binding free energy, -0.14 kcal/mol:
TATGGCACGTGCGTGG, TGGGGCACGTGGTTCT, CTGGGCACGTGCGGAT, GCTAGCACGTGGGTGA, GTATGCACGTGGGGTC, TAGCGCACGTGGAGTG

Relative binding free energy, 0.03 kcal/mol:
TTTGTCACGTGTTGCG, TTTTCCACGTGGTCGT, TTGTACACGTGGCGGC, TTTACCACGTGTGGAT

Relative binding free energy, -0.19 kcal/mol:
TTGAACACGTGGGCTG

Relative binding free energy, -0.01 kcal/mol:
TTTGTCACGTGGCGAG, CTGGACACGTGTCGGG, TTTGTCACGTGTCTCA, GGGAGCACGTGGAGGA, AGGGGCACGTGAGTCA

Relative binding free energy, -0.03 kcal/mol:
AGTGTCACGTGCGGGT, ATCTGCACGTGTATGT, ATGGACACGTGCGTTG, CGAAACACGTGGGTAT

Relative binding free energy, -0.06 kcal/mol:
TTAGCCACGTGATGTT, GCTGTCACGTGGGTAG, TGGCACACGTGGGTGG, ATTTGCACGTGCTGAG, AATCGCACGTGGGGAT, GTCGGCACGTGGCTGG, CATGACACGTGGGAGT, TGGGGCACGTGTAGCA, TTGACCACGTGTTGGT

Relative binding free energy, 0.46 kcal/mol:
TTTCTCACGTGAGGGC

Relative binding free energy, -0.07 kcal/mol:
TGGTGCACGTGTGCGA

Relative binding free energy, -0.24 kcal/mol:
ATATGCACGTGGGCAT, GCGGCCACGTGGGTAG

Relative binding free energy, 0.29 kcal/mol:
CAGTTCACGTGGTGGA, GGTTTCACGTGTAATA, AGTGTCACGTGAATAT, TGACTCACGTGGTTGC

Relative binding free energy, -0.02 kcal/mol:
ATGTCCACGTGTTTGG, TAGGACACGTGTGCGG, GAGGACACGTGGTATG

Relative binding free energy, 0.06 kcal/mol:
TAGTGCACGTGACGTT, CGGTACACGTGTTTGC

Relative binding free energy, 0.23 kcal/mol:
GTTATCACGTGTTGGG, TGATTCACGTGGTAGT

Relative binding free energy, 0.16 kcal/mol:
GAAATCACGTGGGTCG, TGTCTCACGTGCTTGG

Relative binding free energy, 0.1 kcal/mol:
TTGCCCACGTGAGGGG, CGTGACACGTGTGGTG, TATGACACGTGTCTAG, AGGTTCACGTGCGTAA, GGGGACACGTGTAGAA, TAGTGCACGTGAATAG, GATATCACGTGGAGGG, TAAATCACGTGTCTGT, ATGTTCACGTGGGTCA, GGGGTCACGTGGTTGA

Relative binding free energy, -0.22 kcal/mol:
TAGGCCACGTGGTTAT, AATGGCACGTGGGAGC

Relative binding free energy, 0.21 kcal/mol:
TGAATCACGTGTGGAG, GAAGTCACGTGGTAGA, CTATACACGTGAGGTT

Relative binding free energy, 0.08 kcal/mol:
GATGACACGTGGCGGG, GACGGCACGTGTATGT, GTTCACACGTGCGGGG

Relative binding free energy, -0.2 kcal/mol:
AGTGGCACGTGGGTTA

Relative binding free energy, 0.43 kcal/mol:
TGATTCACGTGAGATA

Relative binding free energy, 0 kcal/mol:
TGGTCCACGTGGTTTA, AGAATCACGTGGGTAG, TGGAGCACGTGTGCGC, AGATGCACGTGCGGTT

Relative binding free energy, -0.13 kcal/mol:
TGAAGCACGTGGTGCA, TGGGGCACGTGCGGTC

Relative binding free energy, 0.39 kcal/mol:
TCGGTCACGTGAGAAG, GATTTCACGTGACAGG

Relative binding free energy, 0.27 kcal/mol:
AGTTTCACGTGAGCAT

Relative binding free energy, -0.05 kcal/mol:
AGGGACACGTGTGCGA, AGCAGCACGTGGCGTT

Relative binding free energy, 0.34 kcal/mol:
GGGGCCACGTGAGTCT, ACGTTCACGTGTGTTG

Relative binding free energy, 0.04 kcal/mol:
AGATCCACGTGGTGTA, TTTGGCACGTGAGCGC, GGCTACACGTGGGTTA, TTTCACACGTGTCGGT, TTGGTCACGTGGGTGT, GTGCGCACGTGGAGTC, TAGATCACGTGTTCGT, TTAGTCACGTGGTCGA

Relative binding free energy, -0.11 kcal/mol:
TCTGGCACGTGGGCTT, CGAGGCACGTGGAATG, TTAGGCACGTGTCGGG

Relative binding free energy, 0.2 kcal/mol:
GTCTTCACGTGGGTCT, CATGTCACGTGTGTAT, TGGAACACGTGATCGG, GGTTGCACGTGACGTT

Relative binding free energy, 0.12 kcal/mol:
AGTGTCACGTGTTAGT, TACGTCACGTGCGTTT, TCGTGCACGTGAGGGC, ATGGTCACGTGCAGTA

Relative binding free energy, 0.41 kcal/mol:
GATGTCACGTGAGCTG, TGGTTCACGTGTCGTT

Relative binding free energy, 0.47 kcal/mol:
ATTTTCACGTGAATTA

Relative binding free energy, 0.05 kcal/mol:
AGTGTCACGTGTTAAC, CTGTGCACGTGGATAG, GGTACCACGTGGAGTA

Relative binding free energy, 0.14 kcal/mol:
ACGTACACGTGATGGT, TCTGGCACGTGAGTGC, TTTGACACGTGTCAGT, CATGTCACGTGTTGTA, GGTGTCACGTGTTCGC

Relative binding free energy, 0.15 kcal/mol:
ATTATCACGTGCCGGT, GTGGCCACGTGATATT, GGTTGCACGTGTATGA, AAATTCACGTGTGCGT, AGGTACACGTGGAGTT, TATTCCACGTGGATGA

Relative binding free energy, 0.17 kcal/mol:
ATCTTCACGTGTAGTA, AATATCACGTGTGTAG, TTTTTCACGTGCGTGA, CATTACACGTGATGGG, AATTGCACGTGATAAG

Relative binding free energy, 0.22 kcal/mol:
TTTTGCACGTGAATTC, TTATTCACGTGCGGCT, GGGATCACGTGTGTGT, GTTTCCACGTGTTCAG

Relative binding free energy, -0.18 kcal/mol:
ATGAGCACGTGCGTAG

Relative binding free energy, 0.3 kcal/mol:
CACTTCACGTGGTGAG

Relative binding free energy, -0.1 kcal/mol:
TAAGGCACGTGATCGG, CTGTGCACGTGTTGTC, TGATACACGTGGGAGT, AGAAGCACGTGGGAAT

Relative binding free energy, -0.08 kcal/mol:
TTCGTCACGTGGGGTA, AGGAGCACGTGTGGTG

Relative binding free energy, 0.09 kcal/mol:
TTTAGCACGTGTGAGA, TGAACCACGTGAGGGG, GATGGCACGTGTAATG, TCGTACACGTGTGGAG, TGAAGCACGTGATTTA

Relative binding free energy, 0.19 kcal/mol:
GGCTACACGTGTCGGG, CACGACACGTGTGGTT

Relative binding free energy, 0.32 kcal/mol:
AATTTCACGTGAACGT

Relative binding free energy, 0.35 kcal/mol:
TGTTTCACGTGTGGTC, TATATCACGTGTTAGC

Relative binding free energy, -0.25 kcal/mol:
AAGTCCACGTGGGGGT, TGGGGCACGTGGGCGT

Relative binding free energy, 0.25 kcal/mol:
GATTACACGTGATGGG, TAGTACACGTGATGTT, TGGGTCACGTGAGACA, TAATTCACGTGTGTGG

Relative binding free energy, -0.04 kcal/mol:
TGATCCACGTGGGTGA, ACTTGCACGTGGGTGT, TTTTACACGTGCGTAT, AGTGGCACGTGTGGCG, ATGAACACGTGGAGGG
